From the supplement of paper PMC8728848
This is one part of the list.

Key:
Test in all cases: glycan array binding signal (z-score within array); higher = stronger binding
Settings in all cases: glycan notation: IUPAC condensed, linker removed
[1] = target: Fuc(a1-2)Gal6S(b1-3)GlcNAc6S
Method in brief: (§1)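 Negative Z-scores can be read as non-binding. The Z-score is calculated within each array and then averaged across arrays of one protein sequence at different concentrations or buffers and across linkers. Arrays, 3228 in all, were curated from the Consortium for Functional Glycomics database and kept only where the protein sequence was available.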

[2] = target: Fuc(a1-2)Gal6S(b1-4)Glc
Method in brief: as §1

[3] = target: Fuc(a1-2)Gal6S(b1-4)Glc6S
Method in brief: as §1

[4] = target: Fuc(a1-2)[Gal(a1-3)]Gal
Method in brief: as §1

[5] = target: Fuc(a1-2)[Gal(a1-3)]Gal(b1-3)GalNAc
Method in brief: as §1

[6] = target: Fuc(a1-2)[Gal(a1-3)]Gal(b1-3)GalNAc(b1-3)Gal(a1-4)Gal(b1-4)Glc
Method in brief: as §1

[7] = target: Fuc(a1-2)[Gal(a1-3)]Gal(b1-3)GlcNAc
Method in brief: as §1

[8] = target: Fuc(a1-2)[Gal(a1-3)]Gal(b1-3)GlcNAc(b1-2)Man(a1-3)[Fuc(a1-2)[Gal(a1-3)]Gal(b1-3)GlcNAc(b1-2)Man(a1-6)]Man(b1-4)GlcNAc(b1-4)GlcNAc
Method in brief: as §1

[9] = target: Fuc(a1-2)[Gal(a1-3)]Gal(b1-3)GlcNAc(b1-2)Man(a1-3)[Fuc(a1-2)[Gal(a1-3)]Gal(b1-3)GlcNAc(b1-2)Man(a1-6)]Man(b1-4)GlcNAc(b1-4)[Fuc(a1-6)]GlcNAc
Method in brief: as §1

[10] = target: Fuc(a1-2)[Gal(a1-3)]Gal(b1-3)GlcNAc(b1-3)GalNAc
Method in brief: as §1

[11] = target: Fuc(a1-2)[Gal(a1-3)]Gal(b1-3)GlcNAc(b1-6)GalNAc
Method in brief: as §1

[12] = target: Fuc(a1-2)[Gal(a1-3)]Gal(b1-4)Glc
Method in brief: as §1

[13] = target: Fuc(a1-2)[Gal(a1-3)]Gal(b1-4)GlcNAc
Method in brief: as §1

[14] = target: Fuc(a1-2)[Gal(a1-3)]Gal(b1-4)GlcNAc(b1-2)Man
Method in brief: as §1

[15] = target: Fuc(a1-2)[Gal(a1-3)]Gal(b1-4)GlcNAc(b1-2)Man(a1-3)[Fuc(a1-2)[Gal(a1-3)]Gal(b1-4)GlcNAc(b1-2)Man(a1-6)]Man(b1-4)GlcNAc(b1-4)GlcNAc
Method in brief: as §1

[16] = target: Fuc(a1-2)[Gal(a1-3)]Gal(b1-4)GlcNAc(b1-2)Man(a1-3)[Fuc(a1-2)[Gal(a1-3)]Gal(b1-4)GlcNAc(b1-2)Man(a1-6)]Man(b1-4)GlcNAc(b1-4)[Fuc(a1-6)]GlcNAc
Method in brief: as §1

[17] = target: Fuc(a1-2)[Gal(a1-3)]Gal(b1-4)GlcNAc(b1-3)GalNAc
Method in brief: as §1

[18] = target: Fuc(a1-2)[Gal(a1-3)]Gal(b1-4)GlcNAc(b1-3)[Fuc(a1-2)[Gal(a1-3)]Gal(b1-4)GlcNAc(b1-6)]GalNAc
Method in brief: as §1

[19] = target: Fuc(a1-2)[Gal(a1-3)]Gal(b1-4)GlcNAc(b1-6)GalNAc
Method in brief: as §1

[20] = target: Fuc(a1-2)[Gal(a1-3)]Gal(b1-4)[Fuc(a1-3)]Glc
Method in brief: as §1

[21] = target: Fuc(a1-2)[Gal(a1-3)]Gal(b1-4)[Fuc(a1-3)]GlcNAc
Method in brief: as §1

[22] = target: Fuc(a1-2)[Gal(a1-3)]Gal(b1-4)[Fuc(a1-3)]GlcNAc(b1-3)GalNAc
Method in brief: as §1

[23] = target: Fuc(a1-2)[Gal(a1-4)]Gal(b1-4)GlcNAc
Method in brief: as §1

[24] = target: Fuc(a1-2)[GalNAc(a1-3)]Gal
Method in brief: as §1

[25] = target: Fuc(a1-2)[GalNAc(a1-3)]Gal(b1-3)GalNAc(a1-3)[Fuc(a1-2)]Gal(b1-4)GlcNAc
Method in brief: as §1

[26] = target: Fuc(a1-2)[GalNAc(a1-3)]Gal(b1-3)GalNAc(b1-3)Gal(a1-4)Gal(b1-4)Glc
Method in brief: as §1

[27] = target: Fuc(a1-2)[GalNAc(a1-3)]Gal(b1-3)GlcNAc
Method in brief: as §1

[28] = target: Fuc(a1-2)[GalNAc(a1-3)]Gal(b1-3)GlcNAc(b1-2)Man(a1-3)[Fuc(a1-2)[GalNAc(a1-3)]Gal(b1-3)GlcNAc(b1-2)Man(a1-6)]Man(b1-4)GlcNAc(b1-4)GlcNAc
Method in brief: as §1

[29] = target: Fuc(a1-2)[GalNAc(a1-3)]Gal(b1-3)GlcNAc(b1-2)Man(a1-3)[Fuc(a1-2)[GalNAc(a1-3)]Gal(b1-3)GlcNAc(b1-2)Man(a1-6)]Man(b1-4)GlcNAc(b1-4)[Fuc(a1-6)]GlcNAc
Method in brief: as §1

[30] = target: Fuc(a1-2)[GalNAc(a1-3)]Gal(b1-3)GlcNAc(b1-3)GalNAc
Method in brief: as §1

[31] = target: Fuc(a1-2)[GalNAc(a1-3)]Gal(b1-3)GlcNAc(b1-6)GalNAc
Method in brief: as §1

[32] = target: Fuc(a1-2)[GalNAc(a1-3)]Gal(b1-4)Glc
Method in brief: as §1

[33] = target: Fuc(a1-2)[GalNAc(a1-3)]Gal(b1-4)GlcNAc
Method in brief: as §1

[34] = target: Fuc(a1-2)[GalNAc(a1-3)]Gal(b1-4)GlcNAc(b1-2)Man
Method in brief: as §1

[35] = target: Fuc(a1-2)[GalNAc(a1-3)]Gal(b1-4)GlcNAc(b1-2)Man(a1-3)[Fuc(a1-2)[GalNAc(a1-3)]Gal(b1-4)GlcNAc(b1-2)Man(a1-6)]Man(b1-4)GlcNAc(b1-4)GlcNAc
Method in brief: as §1

[36] = target: Fuc(a1-2)[GalNAc(a1-3)]Gal(b1-4)GlcNAc(b1-2)Man(a1-3)[Fuc(a1-2)[GalNAc(a1-3)]Gal(b1-4)GlcNAc(b1-2)Man(a1-6)]Man(b1-4)GlcNAc(b1-4)[Fuc(a1-6)]GlcNAc
Method in brief: as §1

[37] = target: Fuc(a1-2)[GalNAc(a1-3)]Gal(b1-4)GlcNAc(b1-3)Gal(b1-4)GlcNAc
Method in brief: as §1

[38] = target: Fuc(a1-2)[GalNAc(a1-3)]Gal(b1-4)GlcNAc(b1-3)Gal(b1-4)GlcNAc(b1-3)Gal(b1-4)GlcNAc
Method in brief: as §1

[39] = target: Fuc(a1-2)[GalNAc(a1-3)]Gal(b1-4)GlcNAc(b1-3)GalNAc
Method in brief: as §1

[40] = target: Fuc(a1-2)[GalNAc(a1-3)]Gal(b1-4)GlcNAc(b1-3)[Fuc(a1-2)[GalNAc(a1-3)]Gal(b1-4)GlcNAc(b1-6)]GalNAc
Method in brief: as §1

[41] = target: Fuc(a1-2)[GalNAc(a1-3)]Gal(b1-4)GlcNAc(b1-6)GalNAc
Method in brief: as §1

[42] = target: Fuc(a1-2)[GalNAc(a1-3)]Gal(b1-4)[Fuc(a1-3)]GlcNAc
Method in brief: as §1

[43] = target: Fuc(a1-2)[GalNAc(a1-3)]Gal(b1-4)[Fuc(a1-3)]GlcNAc(b1-3)GalNAc
Method in brief: as §1

[44] = target: Fuc(a1-2)[GalNAc(a1-4)]Gal(b1-4)GlcNAc
Method in brief: as §1

[45] = target: Fuc(a1-2)[GalNAc(b1-3)]Gal
Method in brief: as §1

B1: Cohesin-hDECTIN-1 (Homo sapiens) (protein)
chain: LDITSHHHHHHDDLDAVRIKVDTVNAKPGDTVRIPVRFSGIPSKGIANCDFVYSYDPNVLEIIEIEPGDIIVDPNPDKSFDTAVYPDRKIIVFLFAEDSGTGAYAITKDGVFATIVAKVKEGAPNGLSVIKFVEVGGFANNDLVEQKTQFFDGGVNVGDTTEPATPTTPVTTPTTTDDLDAASSSPCPPNWIIYEKSCYLFSMSLNSWDGSKRQCWQLGSNLLKIDSSNELGFIVKQVSSQPDNSFWIGLSRPQTEVPWLWEDGSTFSSNLFQIRTTATQENPSPNCVWIHVSVIYDQLCSVPSYSICEKKFM
- glycan array binding signal (z-score) [1]: 0.18
- glycan array binding signal (z-score) [2]: -0.465
- glycan array binding signal (z-score) [3]: -0.104
- glycan array binding signal (z-score) [4]: -0.077
- glycan array binding signal (z-score) [5]: -0.429
- glycan array binding signal (z-score) [6]: -0.562
- glycan array binding signal (z-score) [7]: 0.846
- glycan array binding signal (z-score) [8]: -0.472
- glycan array binding signal (z-score) [9]: -0.237
- glycan array binding signal (z-score) [10]: -0.298
- glycan array binding signal (z-score) [11]: 1.59
- glycan array binding signal (z-score) [12]: -0.115
- glycan array binding signal (z-score) [13]: -0.206
- glycan array binding signal (z-score) [14]: -0.222
- glycan array binding signal (z-score) [15]: -0.48
- glycan array binding signal (z-score) [16]: -0.435
- glycan array binding signal (z-score) [17]: -0.311
- glycan array binding signal (z-score) [18]: -0.381
- glycan array binding signal (z-score) [19]: -0.101
- glycan array binding signal (z-score) [20]: -0.409
- glycan array binding signal (z-score) [21]: -0.101
- glycan array binding signal (z-score) [22]: -0.523
- glycan array binding signal (z-score) [23]: -0.394
- glycan array binding signal (z-score) [24]: 0.434
- glycan array binding signal (z-score) [25]: -0.177
- glycan array binding signal (z-score) [26]: -0.377
- glycan array binding signal (z-score) [27]: -0.306
- glycan array binding signal (z-score) [28]: -0.171
- glycan array binding signal (z-score) [29]: -0.305
- glycan array binding signal (z-score) [30]: -0.218
- glycan array binding signal (z-score) [31]: 2.46
- glycan array binding signal (z-score) [32]: -0.197
- glycan array binding signal (z-score) [33]: 0.046
- glycan array binding signal (z-score) [34]: 0.095
- glycan array binding signal (z-score) [35]: -0.383
- glycan array binding signal (z-score) [36]: -0.249
- glycan array binding signal (z-score) [37]: -0.348
- glycan array binding signal (z-score) [38]: -0.459
- glycan array binding signal (z-score) [39]: -0.382
- glycan array binding signal (z-score) [40]: -0.253
- glycan array binding signal (z-score) [41]: 6.29
- glycan array binding signal (z-score) [42]: -0.149
- glycan array binding signal (z-score) [43]: 0.187
- glycan array binding signal (z-score) [44]: 4.25
- glycan array binding signal (z-score) [45]: 4.83
